Test results reported in PMC3276683 (Bioorganic & medicinal chemistry, 2012).
≈ marks a conversion by molar mass, not a printed value. Where two headings read alike, the source gives them in different places.

Key:
[1] = system: Mycobacterium tuberculosis H37Rv; conditions: M. tuberculosis H37Rv; compounds isolated from Piper sanctum; cited from earlier work
[2] = system: Mycobacterium tuberculosis H37Rv

Row | SMILES | MIC [1] [mg/L] | MIC [2] [mg/L]
1 | COc1cc(CCc2ccc3c(c2)OCO3)oc(=O)c1 [compound 2, 6-[2-(1,3-Benzodioxo-5-yl)ethyl]-4-methoxy-2H-pyran-2-one] | 32 (≈ 117 µM) | –
2 | COc1cc(/C=C/c2ccccc2)oc(=O)c1 [compound 4, 4-Methoxy-6-styryl-2H-pyran-2-one] | 4 (≈ 17.5 µM) | –
3 | NNC(=O)c1ccncc1 [isoniazid] | – | 0.03 (≈ 0.219 µM)
